# According to patent US8580254B2, “Anti-IGF antibodies” (Boehringer Ingelheim International GmbH, priority 2007, dated 2013):
# B1: antibody 40186: fully human IgG1/Igλ antibody binding IGF-1 and IGF-2; heavy chain SEQ ID NO:25, light chain SEQ ID NO:26 (antibody, listed as Homo sapiens)
# heavy: QVELVESGGGLVQPGGSLRLSCAASGFTFSNYWMHWVRQAPGKGLEWVSGISGWSSWTYYADSVKGRFTISRDNSKNTLYLQMNSLRAEDTAVYYCARFGIDAYTKVYFDYWGQGTLVTVSS[in this place human IgG1 constant region]
# light: DIELTQPPSVSVAPGQTARISCSGDNIPLKYVSWYQQKPGQAPVLVIHDDNKRPSGIPERFSGSNSGNTATLTISGTQAEDEADYYCQSWASTGVVFGGGTKLTVLGQPKAAPSVTLFPPSSEELQANKATLVCLISDFYPGAVTVAWKGDSSPVKAGVETTTPSKQSNNKYAASSYLSLTPEQWKSHRSYSCQVTHEGSTVEKTVAPTECS
# Columns and labels:
# [1] = system: IGF-1 stimulated COLO 205 cell growth; experiment: COLO 205 cell growth assay (CellTiter-Glo); assay type: cell-based, human; details: 10 ng/ml IGF-1; antibody 5 and 30 μg/ml; 5 days; FIG. 3A
# Method: (§1) The COLO 205 colon cancer-derived cell line (ATCC # CCL-222) is plated in 96-well plates at a cell density of 1000 cells per well in serum-free RPMI medium. 10 ng/ml of either IGF-1 or IGF-2 is added in the presence or absence of a control antibody or antibodies 40183 and 40186 at concentrations of 5 and 30 μg/ml. Cells are cultured for 5 days then the cell number in each well determined using the CellTiter-Glo luminescent cell viability assay (Promega). Luminescence was recorded using a XFluor GENios Pro 4.
# [2] = system: IGF-2 stimulated COLO 205 cell growth; experiment: COLO 205 cell growth assay (CellTiter-Glo); assay type: cell-based, human; details: 10 ng/ml IGF-2; antibody 5 and 30 μg/ml; 5 days; FIG. 3B
# Method: as §1
# SK-N-MC = experiment: Ewing sarcoma-derived cell line growth assay; assay type: cell-based, human; details: medium containing 10% FCS; 120 hours; relative to humanized isotype control antibody; FIG. 5B
# Method: (§2) The Ewing sarcoma-derived cell lines TC-71 (ATCC #ACC516) and SK-N-MC (ATCC #HTB86) are plated in 96-well plates at a density of 1000 cells per well in DMEM medium containing 1×NEAA, 1× sodium pyruvate, 1× glutamax and 10% fetal calf serum (FCS) and incubated overnight at 37° C. and 5% CO2 in a humidified atmosphere. The following day, a serial dilution of test antibody and humanized isotype control antibody (a humanized IgG1 antibody targeted to CD44-v6) are added to the cells. The typical concentrations used are 10, 3.33, 1.11, 0.37, 0.13 and 0.04 μg/ml and each dilution is performed in triplicate wells. The cells plus antibody are then incubated for 120 hours after which time the relative cell number in each well is determined using the CellTiter-Glo luminescent cell viability assay (Promega). Luminescence is recorded using a XFluor GENios Pro 4 and for data analysis the mean value from triplicate wells is taken and fitted by iterative calculations using a sigmoidal curve analysis program (Graph Pad Prism) with variable Hill slope.
# TC-71 = experiment: Ewing sarcoma-derived cell line growth assay; assay type: cell-based, human; details: medium containing 10% FCS; 120 hours; relative to humanized isotype control antibody; FIG. 5A
# Method: as §2
# human IGF-1 = molecular target: T1, human IGF-1 (Homo sapiens, UniProt P05019); experiment: ELISA binding titration of IgG1 antibodies; details: FIG. 1A
# T1 construct: Insulin-like growth factor-1 (IGF-1; a 70 amino-acid polypeptide)
# Method: (§3) ELISA screening for IGF-1 positive Fab clones is performed by coating Maxisorb 384-well plates overnight at 4° C. with 5 μg/ml recombinant human IGF-1 (Gropep) in 1× coating buffer (Gibco). Wells are washed with 1×TBS-T and blocked with 1× Blocking Buffer (Gibco) for 1 h at room temperature. Bacterial lysates containing antibody Fab fragments are added for 1.5 hr at room temperature, then washed five times with 1×TBS-T and detected with Alkaline Phosphatase-conjugated Affini Pure Goat Anti-HumanIgG F(ab′)2. Fragment Specific Mab (Dianova) at a dilution of 1:10 000 and visualized with Attophos Substrate (Roche). Fluorescence readings are performed on Tecan fluorescence reader at excitation 430 nm and emission 535 nm.
# (§4) Cross-reactivity to recombinant human IGF-1, murine IGF-1, murine IGF-2 (R&D Systems), recombinant human IGF-2, rat IGF-1, rat IGF-2 (Gropep) and recombinant human insulin (Roche) is performed by ELISA using the same procedure as above, but with a 1 μg/ml coating dilution.
# rat IGF-2 = molecular target: T2, rat IGF-2 (Rattus norvegicus, UniProt P01346); experiment: ELISA binding titration of IgG1 antibodies; details: FIG. 1F
# T2 construct: insulin-like growth factor-2 (IGF-2; a 67 amino-acid polypeptide)
# T2 sequence (P01346 25-91 limits assumed): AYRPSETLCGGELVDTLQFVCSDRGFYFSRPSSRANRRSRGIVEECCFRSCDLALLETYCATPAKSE
# Method: as §3, §4
# human IGF-2 = molecular target: T3, human IGF-2 (Homo sapiens, UniProt P01344); experiment: ELISA binding titration of IgG1 antibodies; details: FIG. 1B
# T3 construct: insulin-like growth factor-2 (IGF-2; a 67 amino-acid polypeptide)
# Method: as §3, §4
# murine IGF-1 = molecular target: T4, murine IGF-1 (Mus musculus, UniProt P05017); experiment: ELISA binding titration of IgG1 antibodies; details: FIG. 1C
# T4 construct: Insulin-like growth factor-1 (IGF-1; a 70 amino-acid polypeptide); purchased R&D Systems
# Method: as §3, §4
# murine IGF-2 = molecular target: T5, murine IGF-2 (Mus musculus, UniProt P09535); experiment: ELISA binding titration of IgG1 antibodies; details: FIG. 1D
# T5 construct: insulin-like growth factor-2 (IGF-2; a 67 amino-acid polypeptide); purchased R&D Systems
# Method: as §3, §4
# rat IGF-1 = molecular target: T6, rat IGF-1 (Rattus norvegicus, UniProt P08025); experiment: ELISA binding titration of IgG1 antibodies; details: FIG. 1E
# T6 construct: Insulin-like growth factor-1 (IGF-1; a 70 amino-acid polypeptide)
# T6 sequence (P08025 49-118 limits assumed): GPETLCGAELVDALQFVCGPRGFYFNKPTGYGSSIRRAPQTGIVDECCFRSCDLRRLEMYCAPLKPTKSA
# Method: as §3, §4
# [3] = system: insulin stimulated COLO 205 cell growth; experiment: COLO 205 cell growth assay (CellTiter-Glo); assay type: cell-based, human; details: FIG. 3C
# total murine serum IGF-1 = experiment: Effect on total murine serum IGF-1 levels; assay type: in vivo, athymic NMRI nude mice; details: single i.v. doses 12.5, 25, 50, 100 mg/kg; 24 hour post administration; FIG. 8
# Method: Single intravenous (bolus) administrations of 12.5, 25, 50 and 100 mg/kg of antibody 40186 are given to female athymic NMRI nude mice, 6-8 weeks old (n=5). 24 hours post administration a blood sample is taken, serum collected, and total murine IGF-1 levels determined using the OCTEIA rat/mouse total IGF-1 immunocytometric assay. The assay is performed according to the manufacturer's instructions, absorbance is measured at 450 nm and evaluated using the SoftMax Pro software. A standard curve is used to determine the serum concentration of total IGF-1 in ng/ml. Statistical analysis is performed using the GraphPad Prism software.
molecule,measurement,setting,value
B1,effect on IGF-1 induced COLO 205 cell growth,[1],dose dependent inhibition
same,effect on IGF-2 induced COLO 205 cell growth,[2],dose dependent inhibition
same,effect on growth of SK-N-MC cells,SK-N-MC,dose-dependent inhibition of cell growth
same,effect on growth of TC-71 cells,TC-71,dose-dependent inhibition of cell growth
same,binding to human IGF-1 (ELISA),human IGF-1,concentration dependent binding
same,binding to rat IGF-2 (ELISA),rat IGF-2,concentration dependent binding
same,binding to human IGF-2 (ELISA),human IGF-2,concentration dependent binding
same,binding to murine IGF-1 (ELISA),murine IGF-1,concentration dependent binding
same,binding to murine IGF-2 (ELISA),murine IGF-2,concentration dependent binding
same,binding to rat IGF-1 (ELISA),rat IGF-1,concentration dependent binding
same,effect on insulin induced COLO 205 cell growth,[3],no effect
same,serum total murine IGF-1 levels,total murine serum IGF-1,dose dependent elevation
